Reference: article PMC4336329 (PLoS ONE, 2015)
The campaign covered roughly 310,000 compounds. About 2,200 (0.71%) showed an effect of 50% or more. Effects have a minus sign here. This is one part of the list.

Molecular target: human ether-à-go-go-related gene (hERG) potassium channel (human, UniProt Q12809)
Test: primary screen, population patch clamp on CHO cells stably expressing hERG

Sequence of human ether-à-go-go-related gene (hERG) potassium channel (Q12809 whole entry, looked up): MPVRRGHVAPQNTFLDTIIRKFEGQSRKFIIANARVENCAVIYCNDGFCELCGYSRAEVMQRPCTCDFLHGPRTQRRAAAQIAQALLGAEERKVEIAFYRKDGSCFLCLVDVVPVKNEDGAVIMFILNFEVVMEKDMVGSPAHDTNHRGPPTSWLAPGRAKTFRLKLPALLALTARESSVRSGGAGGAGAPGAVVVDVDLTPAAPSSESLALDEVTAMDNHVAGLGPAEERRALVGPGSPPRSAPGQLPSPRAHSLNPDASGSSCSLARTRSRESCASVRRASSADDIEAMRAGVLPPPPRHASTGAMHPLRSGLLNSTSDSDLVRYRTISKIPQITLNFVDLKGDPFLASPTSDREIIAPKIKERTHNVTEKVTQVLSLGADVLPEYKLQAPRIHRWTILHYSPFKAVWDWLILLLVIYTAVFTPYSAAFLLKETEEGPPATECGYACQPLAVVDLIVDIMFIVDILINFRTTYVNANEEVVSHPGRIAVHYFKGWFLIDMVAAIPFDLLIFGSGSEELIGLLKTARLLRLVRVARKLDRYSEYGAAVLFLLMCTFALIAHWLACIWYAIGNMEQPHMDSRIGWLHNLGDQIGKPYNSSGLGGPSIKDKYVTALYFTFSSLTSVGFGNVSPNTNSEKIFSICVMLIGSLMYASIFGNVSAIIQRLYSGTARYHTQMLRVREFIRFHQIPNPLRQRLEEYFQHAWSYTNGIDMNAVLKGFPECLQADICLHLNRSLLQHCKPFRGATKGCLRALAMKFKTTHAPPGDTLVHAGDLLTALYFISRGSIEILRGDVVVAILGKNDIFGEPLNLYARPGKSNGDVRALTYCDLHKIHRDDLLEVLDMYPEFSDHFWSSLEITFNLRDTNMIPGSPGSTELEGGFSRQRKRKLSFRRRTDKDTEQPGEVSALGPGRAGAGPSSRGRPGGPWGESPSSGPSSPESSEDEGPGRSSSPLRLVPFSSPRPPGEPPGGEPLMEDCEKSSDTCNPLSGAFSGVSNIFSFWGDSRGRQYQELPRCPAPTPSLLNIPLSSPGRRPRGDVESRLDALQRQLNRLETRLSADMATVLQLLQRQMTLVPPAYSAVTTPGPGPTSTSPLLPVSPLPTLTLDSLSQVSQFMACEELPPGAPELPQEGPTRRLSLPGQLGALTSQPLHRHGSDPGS

SMILES | hERG current change (%, negative = inhibition) at 1uM
CSc1ccc(CN2CCN(Cc3ccc([N+](=O)[O-])cc3)CC2)cc1.O=C(O)C(=O)O | -70.5%
COc1ccc2[nH]cc(C(=O)CN3CCC(C)CC3)c2c1 | 2.13%
CCC1CCCCN1CCCNC(=O)Cn1nc(-c2ccc(C)cc2)ccc1=O (stereo not drawn) | 3.37%
Cc1cc(C(F)(F)F)n(-c2ccc(N)cc2)n1 | 9.14%
O=C(Nc1ccccc1C(=O)NC1CCCCC1)c1ccco1 | 12.5%
CCOc1ccc(C2(C)CC(=O)N(C)C2=O)cc1 (stereo not drawn) | 16.5%
Cc1ccc(C(=O)NCC2(c3ccccc3)CCCC2)cc1 | 12.5%
COc1ccc(OC)c(NC(=O)c2cccc(NC(=O)c3ccccc3)c2)c1 | 13.7%
CCn1c(N2CCN(C(=O)Nc3ccc(F)cc3)CC2)nc2ccccc21 | -48.4%
CC(C)C(OC(=O)c1nsc(Cl)c1Cl)C(=O)NCc1ccc2c(c1)OCO2 (stereo not drawn) | 10.7%
O=C(Nc1ccccc1Oc1ccccc1)C1CC1 | 17.6%
CC(C(=O)NCc1cccnc1)N1C(=O)c2ccccc2C1=O (stereo not drawn) | 11.2%
O=c1oc(-c2ccccc2NS(=O)(=O)c2ccc(F)cc2)nc2ccccc12 | 11.9%
CN(C(=O)c1cccc(S(=O)(=O)N2CCOCC2)c1)c1c(N)n(Cc2ccccc2)c(=O)[nH]c1=O | 16.2%
CCn1nnnc1-c1ccc(OC)c(S(=O)(=O)Nc2ccc(C(=O)OC)cc2)c1 | 9.61%
Cc1c(C(=O)N2CCOCC2)sc2nc(-c3ccccc3)cn12 | 1.69%
CC(O)[C@H]1CNC(=O)C(=O)N1CCc1cccc(F)c1 (stereo partly drawn) | 15.5%
c1cncc(CNc2ncnc3sc4c(c23)CCCC4)c1 | -48.4%
COc1ccc(NC(=O)CNC(c2ccccc2)c2ccccc2)cc1.O=C(O)C(=O)O | 14.5%
Fc1ccc(-c2nnc3ccc(N4CCCC4)nn23)cc1 | 14.9%
Cn1c(SCC(=O)OCC(=O)c2ccccc2)nnc1-c1cccs1 | 1.31%
COc1ccc(C)cc1NC(=O)c1nn(-c2ccccc2)cc1OC | 11.5%
CC1CCCCC1NCC#CCOc1ccc(Cl)cc1.O=C(O)C(=O)O (stereo not drawn) | 2.89%

SMILES | hERG current change (%, negative = inhibition) at 1uM
CCCCn1c(NCc2ccccc2NS(=O)(=O)c2ccc(C)cc2)nc2ccccc21 | 7.01%
C/C(=N\NC(=O)CCc1ccccc1)C1C(=O)c2ccccc2C1=O | 6.76%
Cn1c(=O)[nH]c(=O)c2c1nc1n2CC(O)CN1c1ccccc1 (stereo not drawn) | 9%
COc1ccc(-c2cc(C(F)F)nc(-n3nc(C)cc3C)n2)cc1 | 11.6%
O=C(COC(=O)c1ccc2c(=O)n3c(nc2c1)CCC3)Nc1ccc(OC(F)F)cc1 | 3.79%
O=C(Nc1ccccc1Cl)NC1(C(=O)N2CCCC2)CCCCC1 | -5.95%
CCCCC(=O)NNC(=O)N1c2ccccc2Sc2ccccc21 | 6.8%
COc1ccc(C(=O)C2CCCN(C(=O)c3cc(C)nc(C)n3)C2)cc1OC (stereo not drawn) | 15.6%
CC(C)Cc1nc(N2CCNCC2)c(C#N)c2c1CCC2 | -0.291%
COc1cc(C)ccc1OCCCOc1ccccc1Cl | 10.7%
Cc1n[nH]c(C)c1CN(C)C(=O)c1cc(COc2ccc(F)c(F)c2)on1 | -4.67%
CCOC(=O)C1=C(COC(=O)[C@H](C)NS(=O)(=O)c2ccc(NC(C)=O)cc2)NC(=O)NC1C (stereo partly drawn) | 19.4%
COc1ccc2c(c1OC)CN1CCc3cc4c(cc3[C@H]1C2)OCO4 | 3.13%
Cc1cc(NC(=O)CSc2nnnn2-c2ccc(C)c(Cl)c2)no1 | 9.52%
CCOc1ccc(CCNC(=O)c2ccc(CS(=O)Cc3cccc(Cl)c3)o2)cc1 (stereo not drawn) | 1.57%
Cc1ccc(CNS(=O)(=O)c2c(C)[nH]c(C)c2C(=O)N2CCCC2)cc1 | 7.8%
CN(C)/C=N/c1sc2c(c1C(N)=O)CCCC2 | 16.5%
Cc1cc(N/C=C/C(=O)c2ccccc2)ccc1Br | 5.69%
CN1CCN(c2ccc([N+](=O)[O-])cc2NC(=O)c2cccs2)CC1 | -14.2%
COc1ccccc1CC(=O)NC1CCN(Cc2ccccc2)CC1 | 11.1%
COc1ccc(NC(=O)NC(C)c2ccc3c(c2)OCO3)cc1OC (stereo not drawn) | 10.8%
COc1cccc(C(=O)Nc2ccc(NC(=O)C(C)C)nc2)c1 | 7.25%
CC(C)Oc1ccc(CCC(=O)N/N=C/c2ccc3c(c2)OCO3)cc1 | 16.1%

SMILES | hERG current change (%, negative = inhibition) at 1uM
COc1ccc(-n2c(SCC(=O)Nc3ccccc3)nc(O)cc2=O)cc1 | 11.6%
Cc1ccc(/C=N/NC(=O)CCCOc2ccc(Cl)cc2Cl)cc1 | 8.28%
Cc1cccc(NC(=O)C2(c3cccs3)CCOCC2)n1 | 34.6%
CCOc1ccc(C(=O)Nc2nnc(SCC(=O)NCC3CCCO3)s2)cc1 (stereo not drawn) | 9.93%
COC(=O)c1[nH]c2cc(OC)ccc2c1NC(=O)CN1CCC(C(N)=O)(N2CCCCC2)CC1 | 3.5%
CCOc1ccc2c(c1)n(CO)c(=S)n2CO | 2.29%
C[C@H](NC(=O)c1[nH]cnc1C(=O)Nc1ccc(Cl)cc1)c1ccccc1 | 8.87%
C=CCN1CN(CCc2ccccc2)CNC1=S | 15.4%
Cc1cccc(OCc2nnc(SCC(=O)NC3CCCC3)n2C)c1 | 4.8%
O=C(COc1ccc(Cl)cc1)NCCCNC(=O)c1cnccn1 | 8.85%
CC1CCN(C(=O)CSc2nc3c(c(=O)n2C)SC(C)C3)CC1 (stereo not drawn) | 13.3%
COc1ccc(-c2cc3c(=O)n(CC(=O)NCc4ccccc4OC)ncn3n2)cc1 | -12.7%
Nc1ccc(-c2nc3ccc(C(=O)O)cc3s2)cc1 | 16.7%
O=C(C1CCCO1)N1CCN(C(c2ccccc2)c2ccccc2)CC1 (stereo not drawn) | 11.6%
CC(C)(C)c1ccc(OCCC(=O)NNC(=O)c2ccccc2)cc1 | 2.62%
CCN(CC)C(=O)COc1ccc(/C=N/NC(=O)c2cc(-c3ccccc3OC)nc3ccccc23)cc1OC | 1.56%
O=C(COC(=O)c1ccc(Cl)nc1)NCc1ccco1 | 19.4%
CN(C(=O)C1CCOC1)c1nnc(C2CCOC2)s1 (stereo not drawn) | 9.56%
Cc1cc(C)c2c(=O)[nH]n(C3CCOC(C)(C)C3)c2n1 (stereo not drawn) | 15.9%
CC1CC(C)CN(S(=O)(=O)c2ccc(Cl)cc2)C1 (stereo not drawn) | 8.74%
COc1cccc(CNC(=O)C2CCC(CNS(=O)(=O)c3cccc4nsnc34)CC2)c1 (stereo not drawn) | 7.46%
CCc1cccc(N(C(=O)c2csnn2)C(C(=O)NC2CCCCC2)c2ccncc2)c1 (stereo not drawn) | 6.54%
Cc1nn(C)c(NC(=O)c2ccccc2Cl)c1Cl | 13.8%

SMILES | hERG current change (%, negative = inhibition) at 1uM
CC(C)OCC(O)CN1CCN(CCN2C(=O)c3cccc4cccc(c34)C2=O)CC1.Cl (stereo not drawn) | -16.3%
CC(C)(C)CC(=O)Nc1ccc(S(=O)(=O)N2CCCC2)cc1 | 9.63%
COc1ccc(N2CC(NS(=O)(=O)c3cccs3)CC2=O)cc1 (stereo not drawn) | 17.2%
CC1Cc2ccccc2N1C(=O)CN1CCN(S(=O)(=O)c2cccs2)CC1 (stereo not drawn) | 7.12%
CNC(=O)C1CC(=O)N(c2ccc(OCC(=O)NCc3ccccc3)cc2)C1 (stereo not drawn) | 15.3%
COC(=O)c1ccc(OC(=O)C2CC(=O)N(c3ccc(C)cc3C)C2)cc1 (stereo not drawn) | 7.34%
NC(=O)c1ccc(NC(=O)CNC(=O)c2sc3ccccc3c2Cl)cc1 | 15.5%
CC1(C)Cc2c(cnn2-c2ccc(F)cc2)C(NC(=O)CCCN2CCCCC2=O)C1 (stereo not drawn) | 8.56%
Cc1c(Cc2ccccc2)c(=O)oc2cc(OCC(N)=O)ccc12 | 6.9%
COc1ccc(CN2CCOCC2)cc1 | 3.2%
Cc1cccc2nc3c(nc12)CCCC3 | 0.436%
Cc1cc(Cl)c(S(=O)(=O)NC(C(=O)O)C(C)C)cc1OCC(=O)NC1CCCCC1 (stereo not drawn) | 12.1%
O=C(CCCCO)c1ccc(O)c(Cl)c1 | 6%
CC(=O)Oc1ccc(/C(C)=N/N2CCN(Cc3ccc(C)cc3)CC2)cc1 | -69.8%
C=CCN1C(=O)N(CC=C)c2cccc3cccc1c23 | 13.4%
OCCCc1nc2n(n1)C(c1ccccc1)C=C(c1ccc(F)cc1)N2 (stereo not drawn) | 8.86%
COCCn1cnc2c1c(=O)n(CC(=O)NN)c(=O)n2Cc1ccccc1 | 11.8%
CCN1C(=O)[C@@H]2[C@@H](c3ccc(SC4CCCCC4)c(OC)c3)N3CCC[C@@]3(C(=O)OC)[C@@H]2C1=O.O=C(O)C(F)(F)F | 7.52%
O=C(N/N=C/c1c[nH]c2ccc(Br)cc12)c1ccn(Cc2ccc(Cl)cc2Cl)n1 | 8.74%
CCCc1nc(N)c(C#N)c(-c2ccco2)c1CC | 13.6%
O=C(O)c1ccccc1/C=N/n1c(C2CCCCC2)n[nH]c1=S | 16.5%
